Laboratory results reported in paper PMC6919601, “Identification of Plasmodium dipeptidyl aminopeptidase allosteric inhibitors by high throughput screening” (PLoS ONE, 2019).
The campaign covered roughly 110,000 compounds. About 230 (0.21%) showed an effect of 50% or more. This is one part of the list.

What follows are compounds tested against DPAP1 (Plasmodium falciparum, UniProt Q8IIJ9) (assay: primary screen, percent inhibition; read by cleavage of a fluorogenic dipeptide substrate; higher = more effect of the substance).
Set-up: species or system P. falciparum D10 trophozoite lysates; single well
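Further: 30 min substrate incubation versus DMSO and 10 µM JCP410 controls.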

DPAP1, sequence (Q8IIJ9 whole entry, looked up): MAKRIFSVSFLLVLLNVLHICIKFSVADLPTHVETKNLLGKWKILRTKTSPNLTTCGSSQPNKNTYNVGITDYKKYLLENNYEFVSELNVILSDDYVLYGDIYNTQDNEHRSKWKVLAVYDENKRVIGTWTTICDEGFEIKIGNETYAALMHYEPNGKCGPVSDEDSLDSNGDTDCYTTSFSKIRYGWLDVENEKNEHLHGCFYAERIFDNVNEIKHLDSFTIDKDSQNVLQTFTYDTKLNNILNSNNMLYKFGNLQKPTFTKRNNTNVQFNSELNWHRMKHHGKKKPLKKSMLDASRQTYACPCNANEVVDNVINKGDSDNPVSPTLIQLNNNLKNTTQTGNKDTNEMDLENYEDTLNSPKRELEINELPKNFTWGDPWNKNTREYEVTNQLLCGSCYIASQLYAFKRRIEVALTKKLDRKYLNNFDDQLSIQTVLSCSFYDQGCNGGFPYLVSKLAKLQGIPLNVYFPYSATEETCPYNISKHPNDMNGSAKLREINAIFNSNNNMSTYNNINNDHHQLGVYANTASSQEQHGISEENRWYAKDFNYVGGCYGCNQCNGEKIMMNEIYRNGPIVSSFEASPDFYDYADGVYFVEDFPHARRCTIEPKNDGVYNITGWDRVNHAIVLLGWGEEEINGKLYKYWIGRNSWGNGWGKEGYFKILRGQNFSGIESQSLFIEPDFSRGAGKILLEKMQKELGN

Structure (SMILES) | % Inhibition @ 10 uM
Cc1ccc(C)c(CN2CCCCC2c2cccnc2)c1 (centres unmarked) | -1.5%
COc1ccc(CCNCc2c(C(=O)O)n(Cc3ccccc3)c3ccccc23)c(OC)c1OC | 3.54%
CC1CC(=O)C2=C(C1)OC(N)=C(C#N)C2c1ccccc1 (centres unmarked) | -5.57%
CCc1cc2c(cc3c(=O)n(CC(=O)NCc4ccccn4)nc(CC)n32)s1 | -1.7%
CCOCCCNc1c2c(c(C#N)c3nc4ccccc4n13)CCC2 | 4.08%
CCN1CCN(c2cc(SC)nc(-c3ccccc3)n2)CC1 | -1.6%
COc1ccc(-c2cc(-c3ccccc3)nc(N3CCCCC3)n2)cc1 | -1.5%
N=C(NOC(=O)c1ccc2c(c1)OCO2)c1ccccn1 | 2.95%
COc1ccc(CNC(=O)c2nnn(Cc3ccc(C(C)C)cc3)c2N)cc1 | 1.26%
CN(C)CCCN(CCCN(C)C)Cc1cc(Br)cs1 | -6.62%
CC(C)N(CCCNC(=O)Cn1ncn2cccc2c1=O)Cc1ccccc1 | -8.41%
Cc1cc(Cl)ccc1OCCCC(=O)N1CCc2ccccc21 | 2.4%
CCOc1cc(CN(C)C2CCN(C)CC2)ccc1O | 0.847%
CCOC(=O)c1cnc(N2CCCCC2)nc1O | 6.31%
CCC(=O)N1N=C(c2ccccc2)CC1c1cc2cc3c(cc2nc1Cl)OCCO3 (centres unmarked) | 0.884%
CC12CC3CC(C)(C1)CC(C(=O)NO)(C3)C2 | -0.239%
CCOc1ccccc1N1CCN(C(=O)C(F)(F)F)CC1 | -9.94%
CC(=O)n1c2ccccc2c2cc([N+](=O)[O-])ccc21 | 1.83%
CN1CCC(N2CCCC(CO)C2)CC1 (centres unmarked) | -3.6%
CC(=O)c1nnn(-c2ccnc(-c3ccc(Br)cc3)n2)c1C | 2.55%
CC(C)OCCCN1C(=O)c2[nH]nc(-c3ccccc3O)c2C1c1cccc(O)c1 (centres unmarked) | -1.35%
Cc1ccc(/N=c2/sc3ccccc3n2C)cc1 | -7.01%
COC1C=CC(CNC(=O)c2sc3nc(-c4ccccc4)cn3c2C)(OC)O1 (centres unmarked) | -0.138%
CC(c1ccccc1)c1nnc(NC(=O)c2ccc(Cl)cc2)s1 (centres unmarked) | -3.78%
Cc1coc2c1c(C)cc1oc(=O)c(CC(=O)NCCc3ccccc3F)c(C)c12 | 0.895%
CCOc1ccc(-c2nonc2NC(=O)C(C)C)cc1 | -1.33%
CC(C)N(C(=O)Cn1cc(S(=O)(=O)Cc2ccc(F)cc2)c2ccccc21)C(C)C | -0.861%
CCC1(CC)C(=O)NC(=O)N=C1SC | 0.266%
O=C1OC(c2ccc(Cl)c(Cl)c2)=N/C1=C\c1cccc(F)c1 | -2.6%
